In US20250262222A1, “HETEROCYCLIC COMPOUNDS, COMPOSITIONS THEREOF, AND METHODS OF TREATMENT THEREWITH” (BeiGene Switzerland GmbH, priority 2022, published 2025) one finds IC50 data, which are given here for 17 compounds.

In general, IC50 refers to the concentration that inhibits the measured activity by half. Higher therefore signals weaker potency in that assay.

Common to all, as to test: biochemical
Assay [1] deals with GST-tagged GDP-loaded KRAS G12V (amino acids 1-169) (Homo sapiens, UniProt P01116, G12V).
Assay [2] addresses GST-tagged GDP-loaded WT KRAS (amino acids 1-169) (Homo sapiens, UniProt P01116).
Assay [3] addresses GST-tagged GDP-loaded KRAS G12D (amino acids 1-188) (Homo sapiens, UniProt P01116, G12D).
The target of assay [4] is GST-tagged GDP-loaded WT KRAS (amino acids 1-188) (Homo sapiens, UniProt P01116).

For `N#Cc1c(N)sc2c(F)ccc(-c3c(Cl)c4c5c(nc(OC[C@@]67CCCN6C[C@H](F)C7)nc5c3F)N3CCOC[C@H]3CO4)c12` (single isomer, unassigned) [Example 14-Isomer 1], the half-maximal inhibitory concentration (IC50) in assay [1] is 15 nM; in assay [2] it was 14 nM.

As to `N#Cc1c(N)sc2c(F)ccc(-c3c(Cl)c4c5c(nc(OC[C@@]67CCCN6C[C@H](F)C7)nc5c3F)N3CCOC[C@H]3CO4)c12` (single isomer, unassigned) [Example 14-Isomer 2], the half-maximal inhibitory concentration (IC50) in assay [1] was found to be 0.61 nM; in assay [2], 0.51 nM.

With `C#Cc1c(F)ccc2cc(O)cc(-c3nc4c5c(nc(OCC67COC(C(F)F)(C6)C7)nc5c3F)N3C[C@H]5CC[C@H](N5)[C@H]3CCO4)c12` [Example 52, 4-((6aR,7S,10R)-13-((1-(difluoromethyl)-2-oxabicyclo[2.1.1]hexan-4-yl)methoxy)-1-fluoro-5,6,6a,7,8,9,10,11-octahydro-4-oxa-3,11a,12,14,15-pentaaza-7,10-methanocyclohepta[4,5]cyclo-octa[1,2,3-de]naphthalen-2-yl)-5-ethynyl-6-fluoronaphthalen-2-ol], the figures for the half-maximal inhibitory concentration (IC50) in assay [3] and in assay [4] were 0.22 nM and 13 nM, respectively.

Turning to `Nc1cc(Cl)c(C(F)(F)F)c(-c2nc3c4c(nc(OCC56COC(C(F)(F)F)(C5)C6)nc4c2F)N2C[C@H]4CC[C@H](N4)[C@H]2CCO3)c1` [Example 53, 3-chloro-5-((6aR,7S,10R)-1-fluoro-13-((1-(trifluoromethyl)-2-oxabicyclo[2.1.1]hexan-4-yl)methoxy)-5,6,6a,7,8,9,10,11-octahydro-4-oxa-3,11a,12,14,15-pentaaza-7,10-methanocyclohepta[4,5]cyclo-octa[1,2,3-de]naphthalen-2-yl)-4-(trifluoromethyl)aniline], the values for the half-maximal inhibitory concentration (IC50) in assay [3] and in assay [4] were 0.81 nM and 255 nM, respectively.

In the case of `Cc1cc(N)c(F)c(-c2nc3c4c(nc(OCC5(C(F)F)COC5)nc4c2F)N2C[C@H]4CC[C@H](N4)[C@H]2CCO3)c1C(F)(F)F` [Example 54, 3-((6aR,7S,10R)-13-((3-(difluoromethyl)oxetan-3-yl)methoxy)-1-fluoro-5,6,6a,7,8,9,10,11-octahydro-4-oxa-3,11a,12,14,15-pentaaza-7,10-methanocyclohepta[4,5]cyclo-octa[1,2,3-de]naphthalen-2-yl)-2-fluoro-5-methyl-4-(trifluoromethyl)aniline], the results for the IC50 in assay [3] and in assay [4] were 15 nM and above 1000 nM, respectively.

Turning to `Nc1cc(Cl)c(C(F)(F)F)c(-c2nc3c4c(nc(OCC56CCC(CC5)O6)nc4c2F)N2C[C@H]4CC[C@H](N4)[C@H]2CCO3)c1` [Example 55, 3-((6aR,7S,10R)-13-((7-oxabicyclo[2.2.1]heptan-1-yl)methoxy)-1-fluoro-5,6,6a,7,8,9,10,11-octahydro-4-oxa-3,11a,12,14,15-pentaaza-7,10-methanocyclohepta[4,5]cyclo-octa[1,2,3-de]naphthalen-2-yl)-5-chloro-4-(trifluoromethyl)aniline], the IC50 in assay [3] was 4.2 nM; in assay [4], 684 nM.

Consider `Cc1cc(N)cc(-c2nc3c4c(nc(OCC56CCC(C(F)F)(C5)OC6)nc4c2F)N2C[C@H]4CC[C@H](N4)[C@H]2CCO3)c1C(F)(F)F` [Example 56, 3-((6aR,7S,10R)-13-((1-(difluoromethyl)-2-oxabicyclo[2.2.1]heptan-4-yl)methoxy)-1-fluoro-5,6,6a,7,8,9,10,11-octahydro-4-oxa-3,11a,12,14,15-pentaaza-7,10-methanocyclohepta[4,5]cyclo-octa[1,2,3-de]naphthalen-2-yl)-5-methyl-4-(trifluoromethyl)aniline], for which the half-inhibitory concentration (IC50) was 2.4 nM in assay [3] and 563 nM in assay [4].

For `Nc1cc(Cl)c(C(F)(F)F)c(-c2nc3c4c(nc(OCC5(C(F)F)CCC5)nc4c2F)N2C[C@H]4CC[C@H](N4)[C@H]2CCO3)c1` [Example 58, 3-chloro-5-((6aR,7S,10R)-13-((1-(difluoromethyl)cyclobutyl)methoxy)-1-fluoro-5,6,6a,7,8,9,10,11-octahydro-4-oxa-3,11a,12,14,15-pentaaza-7,10-methanocyclohepta[4,5]cyclo-octa[1,2,3-de]naphthalen-2-yl)-4-(trifluoromethyl)aniline], the IC50 in assay [3] is 15 nM; in assay [4], above 1000 nM.

For `Nc1cc(Cl)c(C(F)(F)F)c(-c2nc3c4c(nc(OCC5(CO)CC5(F)F)nc4c2F)N2C[C@H]4CC[C@H](N4)[C@H]2CCO3)c1` (stereo partly drawn) [Example 59, (1-((((6aR,7S,10R)-2-(5-amino-3-chloro-2-(trifluoromethyl)phenyl)-1-fluoro-5,6,6a,7,8,9,10,11-octahydro-4-oxa-3,11a,12,14,15-pentaaza-7,10-methanocyclohepta[4,5]cyclo-octa[1,2,3-de]naphthalen-13-yl)oxy)methyl)-2,2-difluorocyclopropyl)methanol], the concentration for half-maximal inhibition (IC50) in assay [3] was 0.44 nM; in assay [4], 85 nM.

Take `COC1(COc2nc3c4c(nc(-c5cc(N)cc(Cl)c5C(F)(F)F)c(F)c4n2)OCC[C@@H]2[C@@H]4CC[C@H](CN32)N4)COC1` [Example 61, 3-chloro-5-((6aR,7S,10R)-1-fluoro-13-((3-methoxyoxetan-3-yl)methoxy)-5,6,6a,7,8,9,10,11-octahydro-4-oxa-3,11a,12,14,15-pentaaza-7,10-methanocyclohepta[4,5]cyclo-octa[1,2,3-de]naphthalen-2-yl)-4-(trifluoromethyl)aniline]: the IC50 in assay [3] was found to be 0.46 nM; in assay [4] it was 354 nM.

As for `COCC1(COc2nc3c4c(nc(-c5cc(N)cc(Cl)c5C(F)(F)F)c(F)c4n2)OCC[C@@H]2[C@@H]4CC[C@H](CN32)N4)COC1` [Example 62, 3-chloro-5-((6aR,7S,10R)-1-fluoro-13-((3-(methoxymethyl)oxetan-3-yl)methoxy)-5,6,6a,7,8,9,10,11-octahydro-4-oxa-3,11a,12,14,15-pentaaza-7,10-methanocyclohepta[4,5]cyclo-octa[1,2,3-de]naphthalen-2-yl)-4-(trifluoromethyl)aniline], the values for the half-maximal inhibitory concentration (IC50) in assay [3] and in assay [4] were 0.74 nM and 307 nM, respectively.

On to `Nc1cc(Cl)c(C(F)(F)F)c(-c2nc3c4c(nc(OCC5(C(F)F)CCOC5)nc4c2F)N2C[C@H]4CC[C@H](N4)[C@H]2CCO3)c1` (stereo partly drawn) [Example 63, 3-chloro-5-((6aR,7S,10R)-13-((3-(difluoromethyl)tetrahydrofuran-3-yl)methoxy)-1-fluoro-5,6,6a,7,8,9,10,11-octahydro-4-oxa-3,11a,12,14,15-pentaaza-7,10-methanocyclohepta[4,5]cyclo-octa[1,2,3-de]naphthalen-2-yl)-4-(trifluoromethyl)aniline], for which the half-maximal inhibitory concentration (IC50) came to 0.48 nM in assay [3] and 257 nM in assay [4].

With `N#CC1(COc2nc3c4c(nc(-c5cc(N)cc(Cl)c5C(F)(F)F)c(F)c4n2)OCC[C@@H]2[C@@H]4CC[C@H](CN32)N4)CCOCC1` [Example 64, 4-((((6aR,7S,10R)-2-(5-amino-3-chloro-2-(trifluoromethyl)phenyl)-1-fluoro-5,6,6a,7,8,9,10,11-octahydro-4-oxa-3,11a,12,14,15-pentaaza-7,10-methanocyclohepta[4,5]cyclo-octa[1,2,3-de]naphthalen-13-yl)oxy)methyl)tetrahydro-2H-pyran-4-carbonitrile], the results for the IC50 in assay [3] and in assay [4] were 1.1 nM and 113 nM, respectively.

With `CC1(COc2nc3c4c(nc(-c5cc(N)cc(Cl)c5C(F)(F)F)c(F)c4n2)OCC[C@@H]2[C@@H]4CC[C@H](CN32)N4)CCOCC1` [Example 65, 3-chloro-5-((6aR,7S,10R)-1-fluoro-13-((4-methyltetrahydro-2H-pyran-4-yl)methoxy)-5,6,6a,7,8,9,10,11-octahydro-4-oxa-3,11a,12,14,15-pentaaza-7,10-methanocyclohepta[4,5]cyclo-octa[1,2,3-de]naphthalen-2-yl)-4-(trifluoromethyl)aniline], the IC50 in assay [3] stood at 2 nM; in assay [4] it was 688 nM.

For the compound `CC1(COc2nc3c4c(nc(-c5cc(N)cc(Cl)c5C(F)(F)F)c(F)c4n2)OCC[C@@H]2[C@@H]4CC[C@H](CN32)N4)COC1` [Example 66, 3-chloro-5-((6aR,7S,10R)-1-fluoro-13-((3-methyloxetan-3-yl)methoxy)-5,6,6a,7,8,9,10,11-octahydro-4-oxa-3,11a,12,14,15-pentaaza-7,10-methanocyclohepta[4,5]cyclo-octa[1,2,3-de]naphthalen-2-yl)-4-(trifluoromethyl)aniline], the IC50 is 0.69 nM in assay [3] and 204 nM in assay [4].

For the compound `Nc1cc(Cl)c(C(F)(F)F)c(-c2nc3c4c(nc(OCC56COCC(C5)C6)nc4c2F)N2C[C@H]4CC[C@H](N4)[C@H]2CCO3)c1` [Example 67, 3-((6aR,7S,10R)-13-((3-oxabicyclo[3.1.1]heptan-1-yl)methoxy)-1-fluoro-5,6,6a,7,8,9,10,11-octahydro-4-oxa-3,11a,12,14,15-pentaaza-7,10-methanocyclohepta[4,5]cyclo-octa[1,2,3-de]naphthalen-2-yl)-5-chloro-4-(trifluoromethyl)aniline], the half-inhibitory concentration (IC50) in assay [3] turned out to be 1.3 nM; in assay [4], 276 nM.

For `CCc1cc(N)cc(-c2nc3c4c(nc(OCC56COC(C5)C6)nc4c2F)N2C[C@H]4CC[C@H](N4)[C@H]2CCO3)c1C(F)(F)F` [Example 68, 3-((6aR,7S,10R)-13-((2-oxabicyclo[2.1.1]hexan-4-yl)methoxy)-1-fluoro-5,6,6a,7,8,9,10,11-octahydro-4-oxa-3,11a,12,14,15-pentaaza-7,10-methanocyclohepta[4,5]cycloocta[1,2,3-de]naphthalen-2-yl)-5-ethyl-4-(trifluoromethyl)aniline], the concentration for half-maximal inhibition (IC50) was 5.5 nM in assay [3] and above 1000 nM in assay [4].
